Assay results from article PMC4336329 (PLoS ONE, 2015).
In all, about 310,000 compounds went through this assay and about 14,000 (4.5%) showed an effect of 50% or more. Effects have a minus sign here. The list shows a part of the results.

What follows are compounds tested against human ether-à-go-go-related gene (hERG) potassium channel (human, UniProt Q12809) (assay: primary screen, population patch clamp on CHO cells stably expressing hERG).
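Further: peak tail current of the secondary pulse compared with the same well before compound.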

Chain of human ether-à-go-go-related gene (hERG) potassium channel (Q12809 whole entry, looked up): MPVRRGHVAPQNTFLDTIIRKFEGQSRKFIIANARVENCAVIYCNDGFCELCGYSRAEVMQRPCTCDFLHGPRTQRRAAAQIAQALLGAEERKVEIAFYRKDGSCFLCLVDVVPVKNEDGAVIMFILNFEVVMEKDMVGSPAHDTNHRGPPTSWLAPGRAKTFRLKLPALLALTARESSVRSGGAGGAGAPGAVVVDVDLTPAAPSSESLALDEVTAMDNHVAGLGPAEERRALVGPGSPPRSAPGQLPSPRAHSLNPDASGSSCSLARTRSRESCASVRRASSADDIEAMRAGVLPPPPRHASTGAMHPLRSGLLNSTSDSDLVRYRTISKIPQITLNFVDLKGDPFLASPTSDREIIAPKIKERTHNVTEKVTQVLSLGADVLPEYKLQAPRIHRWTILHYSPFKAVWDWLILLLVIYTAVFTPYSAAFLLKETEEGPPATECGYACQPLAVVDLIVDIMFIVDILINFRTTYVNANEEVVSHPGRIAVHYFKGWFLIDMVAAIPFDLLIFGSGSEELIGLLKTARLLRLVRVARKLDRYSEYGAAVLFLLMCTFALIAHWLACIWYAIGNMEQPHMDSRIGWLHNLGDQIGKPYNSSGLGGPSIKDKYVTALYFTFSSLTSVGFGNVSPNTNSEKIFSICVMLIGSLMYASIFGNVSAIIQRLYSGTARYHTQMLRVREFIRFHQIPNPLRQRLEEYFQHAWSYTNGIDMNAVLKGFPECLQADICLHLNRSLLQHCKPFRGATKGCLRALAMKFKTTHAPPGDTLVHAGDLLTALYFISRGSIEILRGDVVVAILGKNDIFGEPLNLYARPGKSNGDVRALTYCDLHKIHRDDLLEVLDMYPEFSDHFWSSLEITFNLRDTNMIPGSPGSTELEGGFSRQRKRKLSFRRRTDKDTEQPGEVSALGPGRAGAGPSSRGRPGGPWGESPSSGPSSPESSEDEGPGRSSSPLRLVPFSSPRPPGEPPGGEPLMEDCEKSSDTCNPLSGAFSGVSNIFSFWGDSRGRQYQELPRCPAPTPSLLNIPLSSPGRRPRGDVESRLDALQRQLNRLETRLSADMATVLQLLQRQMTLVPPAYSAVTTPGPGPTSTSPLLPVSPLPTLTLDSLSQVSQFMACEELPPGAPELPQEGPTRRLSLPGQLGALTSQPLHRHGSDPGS

Row | SMILES | hERG current change (%, negative = inhibition) at 10uM [%]
1 | CCCCCCCCSc1n[nH]c(N)n1 | -4.48
2 | COc1ccc(N(C)S(=O)(=O)c2cccc(C(=O)OC(C)C(=O)NC3CCCCC3C)c2)cc1 (stereo not drawn) | 2.83
3 | Cc1c(NC(=O)CSc2n[nH]c(=O)n2-c2ccccc2)c(=O)n(-c2ccccc2)n1C | 16.9
4 | CCOC(=O)c1[nH]c(C)c(C(=O)N2CCc3c([nH]c4ccccc34)C2c2ccccn2)c1C (stereo not drawn) | -0.347
5 | COc1cccc(CC(=O)Nc2cc(S(=O)(=O)N3CCOCC3)ccc2N2CCN(C)CC2)c1 | -36.1
6 | O=C(NC(=S)Nn1cnc2c(cnn2-c2ccccc2)c1=O)c1ccc(Cl)cc1 | 3.9
7 | CC1CCCCC1NC(=O)C1CC(=O)N(Cc2ccccc2)C1 (stereo not drawn) | 11.1
8 | N/C(=N\OC(=O)Nc1ccccc1)c1ncc([N+](=O)[O-])s1 | -2.31
9 | CSc1nc(Cl)c(Cc2ccc(OC(C)C)cc2)c(N2CCOCC2)n1 | -8.81
10 | Cc1nn(-c2ccccc2)c(C)c1C(=O)OCC(=O)N1CC(=O)Nc2ccccc21 | 1.89
11 | O=C(COC(=O)/C=C/c1ccc(F)cc1)NCc1ccco1 | 1.28
12 | Cc1oc(-c2ccc(Cl)cc2)nc1CS(=O)CC(=O)NCCN1CCCCCC1 (stereo not drawn) | -39.4
13 | CCn1c(Oc2ccccc2C)nc2c1c(=O)n(C)c(=O)n2C | 5.49
14 | CCN1CCN(C(=O)c2ccc(N3CC4CC(C3)c3cccc(=O)n3C4)c(NC(=O)c3cc(OC)cc(OC)c3)c2)CC1 (stereo not drawn) | 15.4
15 | CCn1ccc(C(=O)NC2=C(C#N)CCC2)n1 | 23.5
16 | CCc1cc(Cn2nc(-c3ccccc3)cc2C(=O)NCC2CC2)on1 | -51.8
17 | CCN(CC(=O)N1CCOCC1)S(=O)(=O)c1ccc2ccccc2c1 | 11.1
18 | COCC1CCCN(C(=O)c2ccc3oc(CCCc4ccccc4)nc3c2)C1 (stereo not drawn) | -16.2
19 | N#Cc1c(C#N)c(O)c2ccccc2c1O | 18.9
20 | Nc1nnn(CC(=O)N/N=C/c2cccc(Cl)c2)n1 | 4.76
21 | CC1(C)CC(=O)C=C(Nc2ccc3c(c2)OCCO3)C1 | 17.7
22 | CC(C)(C)n1nnnc1C(c1cccs1)N1CCN(c2ccccc2)CC1 (stereo not drawn) | -10.5

Row | SMILES | hERG current change (%, negative = inhibition) at 10uM [%]
23 | COc1cccc(CN2CCN(S(=O)(=O)c3ccc(NC(C)=O)cc3)CC2)c1OC.O=C(O)C(=O)O | 1.45
24 | COc1ccccc1CC(=O)Nc1ccc(-c2noc(COc3cccc(C)c3C)n2)cc1 | 17.4
25 | O=C(N/C(=C\c1ccc(F)cc1)C(=O)N1CCCCCC1)c1ccccc1 | -11.6
26 | Cc1csc2ncnc(N3CCN(S(=O)(=O)c4cccc(C(F)(F)F)c4)CC3)c12 | -2.6
27 | COc1ccc(CC(=O)Oc2ccccc2[N+](=O)[O-])cc1 | 16.6
28 | Cc1c(NC(=O)C(C)OC(=O)CCc2ccccc2)c(=O)n(-c2ccccc2)n1C (stereo not drawn) | 11.3
29 | CC1=NN(c2nc(-c3ccc(C)cc3)cs2)C(=O)C1N=Nc1cccc(C)c1 (stereo not drawn) | 10.6
30 | O=C(CCn1c(=O)oc2ccccc21)Nc1nc2ccccc2s1 | -41.4
31 | O=C1c2ccccc2C2(c3ccccc3)NCCN12 (stereo not drawn) | 5.86
32 | CC(C)CC1Nc2ccc(C(=O)NCCCN3CCCCC3C)cc2NC1=O (stereo not drawn) | 3.4
33 | COc1ccc(C(=O)NCc2nnc(SCC(=O)Nc3ccccc3F)o2)cc1 | 0.675
34 | NC1=NC2=C(CCCC2)C2(CCCCC2)S1 | -23.2
35 | Cc1ccc2c(c1)cc1c(=O)n(CC(=O)N3CCCC3)nc(C)n12 | 12.3
36 | COc1ccc(-n2c(=O)c3c4c(sc3n(CC(N)=O)c2=O)CCCCC4)cc1 | 8.5
37 | CCOC(=O)c1cnn(-c2ccccc2)c1-n1cccc1C(=O)C(=O)Nc1ccc(OC)cc1 | 11.8
38 | O=C(COC(=O)CCC(=O)c1cccs1)NCc1ccccc1 | 33.1
39 | COc1ccccc1NS(=O)(=O)c1cc(NC(=O)c2cc3ccccc3oc2=O)ccc1C | 8.21
40 | CC(C)N1CC(C(=O)Nc2cccc([N+](=O)[O-])c2)CC1=O (stereo not drawn) | -5.14
41 | COc1cccc(N2CCN(CC(=O)Nc3ccnn3C3CCCC3)CC2)c1 | -3.2
42 | Cc1ccc(S(=O)(=O)CCC(=O)OCc2cc(C)ccc2C)cc1 | 4.14
43 | O=C(COC(=O)Cc1cccc(C(F)(F)F)c1)Nc1ccc2c(c1)OCCO2 | 13.2
44 | CN1CCNC(=O)C1CC(=O)NCCC1=CCCCC1 (stereo not drawn) | 18.2

Row | SMILES | hERG current change (%, negative = inhibition) at 10uM [%]
45 | CCOC(=O)C1CCN(CCC(=O)Nc2cccc(C)c2)CC1.Cl | -66.8
46 | COc1ccc(S(=O)(=O)N2CCN(c3ccc(F)cc3)CC2)cc1C(=O)N1CCOCC1 | 5.87
47 | CCCCn1c(O)c(C(C)=Nc2cccc(C(=O)O)c2)c(=O)[nH]c1=O | -14.4
48 | O=C(CN1C(=O)c2cccc3cccc1c23)N1CCN(c2cccc(Cl)c2)CC1 | -9.66
49 | CC(=O)c1cccc(NC(=O)c2ccc3c(c2)C(=O)N(Cc2cccnc2)C3=O)c1 | -9.85
50 | COc1ccc2cc(OCC(=O)NNC(=O)Nc3ccc(C(C)=O)cc3)ccc2c1 | 9.54
51 | CC1(C)O[C@@H]1COc1c2ccoc2cc2oc(=O)ccc12 | -19.4
52 | CN(c1ccccc1C(=O)NCc1ccccn1)S(C)(=O)=O | 9.24
53 | CNC(=O)c1c(NC(=O)c2ccco2)sc(C)c1C | 1.42
54 | CCN(CC)S(=O)(=O)c1ccc(/C=C/C(=O)NC2CCCCC2)cc1 | 5.02
55 | CC(C)CCN(C(=S)Nc1cccc(F)c1)C(C)c1cccs1 (stereo not drawn) | 3.83
56 | C/C(=N\NC(=O)c1ccoc1C)c1cccc2ccccc12 | 19
57 | Cc1cc(Cn2nc(-c3ccccc3C)cc2C(=O)O)on1 | 17
58 | COc1ccc(/C=C/C(=O)NCC(=O)N/N=C/c2ccc(OC)cc2)cc1 | 18.2
59 | CCN(CC(=O)NCCCn1ccnc1)S(=O)(=O)c1ccc(C)cc1 | -14.8
60 | Cc1ccc(S(=O)(=O)N2CCCCC2)cc1NC(=O)Cn1ccc(C(F)(F)F)n1 | -8.63
61 | CCOC(=O)c1sc(NC(=O)C2=COCCO2)c(C#N)c1C | 3.71
62 | CCOC(=O)C1=C(COC(=O)CCNS(=O)(=O)c2ccc(C)c(C)c2)NC(=O)NC1C (stereo not drawn) | -16.1
63 | O=C(NCCCNC(=O)c1cc(Cl)ccc1Cl)c1cnccn1 | 8.25
64 | O=C(COC(=O)C1(c2ccccc2F)CCCC1)NCc1ccc2c(c1)OCO2 | -6.33
65 | O=C(Cc1ccc(Br)cc1)OCC(=O)N1CCc2ccccc2C1 | 5.68
66 | CCCS(=O)(=O)N1CCN(c2ccccc2F)CC1 | 10.3

Row | SMILES | hERG current change (%, negative = inhibition) at 10uM [%]
67 | Cc1cc(C=O)c(C)n1C1CCCCC1 | -4.74
68 | COc1cc2c(cc1OC)CC(C(=O)NCc1ccccc1)NC2 (stereo not drawn) | 7.81
69 | Cc1cc(C)cc(C(=O)NCC(=O)NCCc2c[nH]c3ccccc23)c1 | 25.1
70 | COc1cc(S(=O)(=O)Nc2ncn[nH]2)ccc1Cl | 18.3
71 | Cc1ccc(C(C(=O)NCc2ccco2)N(C(=O)CNC(=O)c2cccs2)c2ccc(C)cc2)cc1 (stereo not drawn) | 27.3
72 | O=C(Cn1c(S(=O)(=O)Cc2ccccc2)nc2ccccc21)N1CCCCC1 | -6.34
73 | Cc1ccc(S(=O)(=O)NC(=O)c2cccc(C)c2)cc1 | -1.32
74 | CCOc1c(C)cnc2c1c(=O)n(Cc1ccccc1Cl)c(=O)n2C | 9.79
75 | COc1cc(OC)c(OC)cc1/C=C1/C(=O)N=C(N)N1C | -16.1
76 | Cc1cccc(N2C(=O)/C(=C\c3ccc(OC(F)F)cc3)c3ccccc3C2=O)c1 | 5.85
77 | CCN(C(=O)CN1C(=O)NC(CCSC)C1=O)C1CCS(=O)(=O)C1 (stereo not drawn) | -48.1
78 | COC(=O)c1ccc2c(=O)n(Cc3ccc(C(=O)NCCCN4CCC(C)CC4)cc3)c(=S)[nH]c2c1 | 7.54
79 | Cc1ccccc1CNC(=O)c1cc(COc2ccc(F)cc2F)on1 | 44.5
80 | Cc1ccc(NC(=O)CSc2nncn2-c2ccccn2)cc1Cl | 5.29
81 | Cc1cc(S(=O)(=O)N2CC(=O)N(CCc3ccccc3)C(=O)C2)ccc1F | 17.3
82 | Cc1cccc(N2C(=O)C(Cl)=C(Nc3c(C)n(C)n(-c4ccccc4)c3=O)C2=O)c1C | 15.4
83 | COc1ccc(-c2oc3ccccc3c2C(=O)OCc2ccccc2)cc1 | 15.1
84 | Cc1c(S(=O)(=O)Nc2cccc(Cl)c2)c(=O)n(C)c(=O)n1C | 5.03
85 | CC(C)(C)C(=O)OC/C(N)=N/OC(=O)c1ccccc1 | -3.07
86 | CN(C(=O)COC(=O)c1ccc([N+](=O)[O-])cc1Cl)C1CCCCC1 | -29.1
87 | CCCCCCCc1c(C#N)c(N)[nH]c(=S)c1C#N | 17.1
